# Reference: the supplement of paper PMC10185492
# This is one part of the list. Values come from read counts of a selection and are noisy.
# System: SARS-CoV-2 3CLpro (nsp5)
# Test: substrate phage enrichment score (protease-eluted vs HEPES control, +1 offset) (ratio); higher = better cleaved substrate
# Conditions: selection round: 3; protease elution time: 0.5 h
# Procedure: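 Random heptapeptide substrate phage display (M13 pIII fusion, heptapeptide between an N-terminal biotinylated AviTag GLNDIFEAQKIEWHE and pIII; phages immobilised on streptavidin) eluted by cleavage with 50 nM protease in 20 mM HEPES at 37 °C. Selected phages were NGS sequenced, and the enrichment score is (reads in protease sample + 1)/(reads in HEPES blank-selection control + 1).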
row,Substance,substrate phage enrichment score
1,NPAAHHH,1.04
2,PQTDHDR,3.6
3,EIYLHLR,2.83
4,LPSGHSL,1.43
5,HTMPNLQ,> 69
6,TERTTLQ,> 57
7,NRAPRLQ,> 60
8,KEVQGPE,> 26
9,ALTRPGQ,> 41
10,AETNCSR,2
11,WAHSSQR,> 23
12,PGSCLKT,1.33
13,DTYTRMH,4
14,MGSCVLH,8.83
15,VNAAHPQ,1.46
16,PETCRSM,13.3
17,ARHTELQ,> 72
18,ELNFQGG,1.79
19,TGEQGCT,12.5
20,RVAPTRA,0.222
21,PKAELKK,6.33
22,LNGQEDH,> 26
23,QLSRPAV,0.933
24,KTAAHHH,0.917

row,Substance,substrate phage enrichment score
1,CPQANFQ,11.8
2,RKNAVLQ,> 116
3,IAATPSK,19.5
4,PYLPTQP,> 28
5,VPNELLK,> 26
6,SQGVKLQ,> 55
7,AAECRHG,> 23
8,PVRAHLQ,> 23
9,SSGRHNR,1.47
10,VHSSAYG,1.56
11,CNPLTRR,2.79
12,ACGKTKV,3.4
13,EGTRCNN,10.8
14,PLSTLHN,> 26
15,RDVSSKG,> 25
16,SAEPLRN,0.421
17,AHFQGGS,5.33
18,PHASCSL,> 31
19,TATIPQI,> 30
20,MGTKLTP,> 21
21,KDRDVMS,> 29
22,HCQPGLM,> 23
23,TSGEKSC,3.14
24,SKTEWPE,0.714

row,Substance,substrate phage enrichment score
1,RSFERLQ,> 47
2,YPDGSFK,2.38
3,CAPKSAR,3.6
4,SAAAQHQ,1.12
5,LSSRLQS,> 62
6,ESVELQA,> 33
7,TPGGEFN,6.33
8,SDKARTT,> 26
9,VPSSCLQ,> 229
10,YKTRCQN,3.4
11,ELRSCLC,1.42
12,EDVWVCR,1.08
13,RLHDLRR,2.14
14,STVQPNS,6.09
15,KESVICG,7.77
16,NYGNLKQ,17.2
17,LRFFRRR,> 21
18,DESTAIH,> 21
19,TTKLQAS,> 37
20,IAGEVRS,0.15
21,AWPKLGC,> 30
22,WRSQDMK,0.467
23,DRAAHHH,0.355
24,HSELSFQ,10.5

row,Substance,substrate phage enrichment score
1,NSSTTPR,0.722
2,RNTRIPT,> 22
3,STEMANP,2.25
4,IRPHIII,1.43
5,RTLCTLQ,> 21
6,WRPHIII,1.71
7,CSDAHKP,0.8
8,AALKHWQ,> 25
9,TTAHHHH,0.667
10,WKKTHLS,> 22
11,HCITVTR,6.12
12,LLNLPND,6.33
13,MSAAHHH,1.23
14,EHPVWQE,1.36
15,TPGAMKS,> 22
16,SRPHFQG,> 23
17,DTAAHHH,0.688
18,SAAILQS,> 24
19,TPAAHHH,1.19
20,TQGSVSH,> 27
21,ESRQGVC,> 30
22,RKCILQS,14
23,MSGITHG,1
24,AHCTQLQ,> 156

row,Substance,substrate phage enrichment score
1,DREEKMR,> 32
2,QVIPSVK,> 78
3,DPQRKFL,6.38
4,NASAHHH,2.71
5,HCGDAAA,4.5
6,STGEYRQ,0.222
7,TWNYRPS,> 22
8,TAILQSV,> 32
9,TAGVTLH,30.5
10,TPVSGCQ,> 26
11,LTRLCAE,11
12,GAATLQA,> 26
13,TNAAHHH,1.08
14,AMTCTLQ,> 38
15,KAQLMSN,> 31
16,WTRPKCE,0.0714
17,THNQIMK,3.22
18,GQAAKLQ,> 33
19,LLPLEAR,14.7
20,KCQSLDW,3.78
21,TREIYSE,1.85
